Laboratory results reported in patent publication US20240116997A1 (BRIGHT PEAK THERAPEUTICS, published 2024).

T1: IL-18 receptor (IL-18Rαβ) on cells (UniProt Q13478 19-541; O95256 20-599, limits assumed)
T1 sequence (looked up) 1: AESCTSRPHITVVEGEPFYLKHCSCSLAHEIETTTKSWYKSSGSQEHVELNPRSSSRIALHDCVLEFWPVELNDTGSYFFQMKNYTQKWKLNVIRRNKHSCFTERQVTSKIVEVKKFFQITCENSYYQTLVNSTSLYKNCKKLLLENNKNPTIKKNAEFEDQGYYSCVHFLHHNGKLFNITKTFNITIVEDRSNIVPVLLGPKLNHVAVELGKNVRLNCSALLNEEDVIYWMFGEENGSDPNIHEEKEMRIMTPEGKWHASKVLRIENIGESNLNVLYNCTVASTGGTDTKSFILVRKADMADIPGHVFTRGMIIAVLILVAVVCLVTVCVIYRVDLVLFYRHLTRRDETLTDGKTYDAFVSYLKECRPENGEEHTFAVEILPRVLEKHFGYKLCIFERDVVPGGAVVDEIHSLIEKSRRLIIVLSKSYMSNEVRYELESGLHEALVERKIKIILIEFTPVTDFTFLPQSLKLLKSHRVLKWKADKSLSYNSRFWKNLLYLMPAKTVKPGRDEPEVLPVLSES
T1 sequence (looked up) 2: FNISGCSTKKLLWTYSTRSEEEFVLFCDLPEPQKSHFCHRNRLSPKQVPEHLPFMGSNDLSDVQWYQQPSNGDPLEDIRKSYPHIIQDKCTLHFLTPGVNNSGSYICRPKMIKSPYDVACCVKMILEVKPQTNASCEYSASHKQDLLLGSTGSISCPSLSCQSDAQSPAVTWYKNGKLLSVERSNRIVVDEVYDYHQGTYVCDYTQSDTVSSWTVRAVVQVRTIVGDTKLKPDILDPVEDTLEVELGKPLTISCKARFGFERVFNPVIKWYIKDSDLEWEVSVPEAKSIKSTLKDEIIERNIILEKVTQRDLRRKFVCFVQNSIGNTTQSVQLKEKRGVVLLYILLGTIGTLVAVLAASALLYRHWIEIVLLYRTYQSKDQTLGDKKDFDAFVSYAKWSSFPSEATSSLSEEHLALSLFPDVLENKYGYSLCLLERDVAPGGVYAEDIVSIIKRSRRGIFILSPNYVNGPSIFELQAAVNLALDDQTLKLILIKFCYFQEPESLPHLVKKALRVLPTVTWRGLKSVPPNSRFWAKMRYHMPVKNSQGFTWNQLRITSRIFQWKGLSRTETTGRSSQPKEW


biological target: T1, IL-18 receptor (IL-18Rαβ) on cells; experiment: cell-based or functional assay

EC50 (pM), HEK-Blue IL-18R reporter assay [pM]	Binder
0.72	IL-18 polypeptide SEQ ID NO: 39 (E06K, K53A) (ligand) not shown

biological target: T1, IL-18 receptor (IL-18Rαβ) on cells; experiment: cell-based or functional assay; remark: another data set of the same source

Binder	EC50 (nM), IFNγ induction, NK-92 cells [nM]
IL-18 polypeptide SEQ ID NO: 39 (E06K, K53A) (ligand) not shown	0.0192
IL-18 polypeptide SEQ ID NO: 36 (K53A) (ligand) not shown	0.444
IL-18 polypeptide SEQ ID NO: 38 (E06K) (ligand) not shown	0.0567
IL-18 polypeptide SEQ ID NO: 40 (E06K, S55A) (ligand) not shown	0.067
IL-18 polypeptide SEQ ID NO: 37 (S55A) (ligand) not shown	0.108

The next lines start with the values.

EC50 (nM), IFNγ induction, NK-92 cells [nM]	Binder
0.449	IL-18 polypeptide SEQ ID NO: 51 (T63A) (ligand) not shown
1.58	IL-18 polypeptide SEQ ID NO: 41 (K53A, S55A) (ligand) not shown
0.011	IL-18 polypeptide SEQ ID NO: 52 (E06K, T63A) (ligand) not shown
0.155	IL-18 polypeptide SEQ ID NO: 53 (K53A, T63A) (ligand) not shown
